Not every detail of the peptide structures is certain; ends, links or a residue may be inferred. Some compounds share one wording; it may come from a single statement. Ends that are not written are not given here.
Key:
[1] = Solid-phase binding of 3H-heparin to peptides adsorbed to plastic plates (RLBA); details: for Heparin Binding (bound ^3 H-heparin as percent of input): One microgram peptide adsorbed, 200,000 dpm ^3 H-heparin, 20 mM Tris pH 6.8, 50 mM NaCl, 2 mg/ml ovalbumin; for Heparin binding activity group: grouping of the Table II results in words
Experimental: The binding of ^3 H-heparin to laminin A chain peptides was measured in a direct solid phase binding assay as described below, whereby various amounts of the peptides were adsorbed to plates and ^3 H-heparin was added to each well. More specifically, the binding of ^3 H-heparin (0.3 mCi/mg; Du Pont - New England Nuclear Research Products, Wilmington, Del.) to laminin, synthetic peptides, and bovine serum albumin (BSA) (fatty acid free, fraction V, ICN Immunobiologicals) was quantititated by a solid-phase RLBA in 96-well polystyrene Immulon 1 plates (Dynatech Laboratories, Inc., Alexandria, Va.) as described by Skubitz et al., supra (1988). Specifically, 50 microliters of the various proteins at various concentrations (0.2 μg/well-5.0 μg/well) in PBS containing 0.02% NaN3 was added to each well and dried overnight at 29° C. The next day, 200 μl of 2 mg/ml BSA in PBS was added to each well, followed by a 2 hour incubation at 37° C. After removal of this buffer, 50 μl of ^3 H-heparin (200,000 dpm) was added in RLBA buffer (20 mM Tris, pH 6.8 containing 50 mM NaCl and 2 mg/ml ovalbumin) and the wells were incubated at 37° C. for 2 hours. Unbound ^3 H-heparin was removed by washing three times with wash buffer (RLBA buffer containing 0.1% CHAPS). Tritiated heparin was solubilized by incubation with 200 μl of 0.05N NaOH and 1% SDS for 30 minutes at 60° C. and quantitated in a Beckman LS-3801 scintillation counter.
The above experimental procedure was repeated to determine the percentage of ^3 H-heparin that would adhere to 2 μg/well of each polypeptide after a two-hour incubation in increasing concentrations of salt (NaCl).

[2] = tested on: eight different cell lines of murine or human origin; assay: Direct cell adhesion, summary over eight tumor cell lines; format: cell-based; details: summary of Table IV over eight cell lines
Text: (§1) The murine melanoma K-1735-C10 (low metastatic) and K-1735-M4 (high metastatic) cell lines, murine UV-2237-MM fibrosarcoma cell line, human renal carcinoma SN12 C (low metastatic) and SN12 PM-6 (high metastatic) cell lines, and human colon carcinoma KM12 C (low metastatic) and KM12 SM (high metastatic) cell lines were originally provided by Dr. I. J. Fidler (M.D., Anderson Hospital, University of Texas Health Sciences Center, Houston, Tex.). The human fibrosarcoma HT-1080 cell line was obtained from the ATCC. The MM fibrosarcoma cell line was maintained in DME (GIBCO Laboratories, Grand Island, N.Y.) containing 10% FBS, the murine melanomas were maintained in DMEM containing 10% calf serum, the human fibrosarcoma cells were maintained in EMEM containing 10% heat inactivated FBS, and the human renal and colon carcinoma cells were grown in EME containing 10% FBS, vitamins, and 1 mM sodium pyruvate. Cells were passaged for 4 to 5 weeks and then replaced from frozen stocks of early passage cells to minimize phenotypic drift. Cells were maintained at 37° C. in a humidified incubator containing 5% CO2.
The direct adhesion of cells to protein or peptide coated surfaces was performed as described in Skubitz et al., Exp. Cell Res., 173, 349-360 (1987) and Charonis et al., supra (1988). Briefly, radiolabeled cells were added to 96-well microtiter plates coated with various concentrations of synthetic peptides, laminin, or BSA (0.02 μg/well-50 μg/well from 50 μl solutions) for various lengths of time. After the incubation period, loosely or nonadherent cells were removed by washing the wells three times. Adherent cells were solubilized and quantitated in a scintillation counter. More specifically, cultures of cells which were 60-80% confluent were metabolically labeled for 24 hours with the addition of 3 μCi/ml of ^3 H-td (tritiated thymidine). On the day of the assay, the cells were harvested by trypsinization, the trypsin was inhibited by the addition of serum, and the cells were washed free of this mixture and resuspended in DMEM buffered with HEPES at pH 7.2. The adhesion medium also contained 2 mg/ml BSA. The cells were adjusted to a concentration of 3-4×10^4 /ml, and 100 μl of this cell suspension was added to the wells. The assay mixture was then incubated at 37° C. for 120 minutes. At the end of the incubation, the wells were washed with warm DMEM/Hepes containing 2 mg/ml BSA, and the adherent population was solubilized with 0.5N NaOH contained 1% SDS. The solubilized cells were then quantitated using a liquid scintillation counter.
Instead of attempting to characterize the cell binding activity of all 14 of the synthetic peptides, a number of peptides from each of the three heparin binding categories of peptides were evaluated. Microtiter wells were adsorbed with the peptides, laminin, or BSA and a variety of tumor cell lines were tested for the ability to adhere to the ligands. The eight different cell lines selected for this study were of murine or human origin and, in most cases, of either high or low metastatic capacity. […] Many of the peptides that were very good at binding heparin and cells were also capable of inhibiting the adhesion of various cells to surfaces coated with laminin (see below).

[3] = tested on: murine fibrosarcoma (MM) cells; assay: Inhibition of cell adhesion to laminin-coated surfaces; format: cell-based; details: soluble peptide 10 μg/ml, surface coated with 1.5 μg of laminin
Text: as §1
(§2) Inhibition of cell adhesion with synthetic peptides was performed using assays similar to those described by Skubitz et al., supra (1987). Briefly, radiolabeled cells at 5×10^4 /ml were incubated for 30 minutes with various concentrations of synthetic peptides (1.0 μg/ml-200 μg/ml) in DME/Hepes containing 2 mg/ml BSA. One hundred microliters of the cell suspension was then added to wells precoated with 1.5 μg of laminin, 1.0 μg of type IV collagen, or 1.0 μg of fibronectin. The cells were incubated for 30 minutes at 37° C., then the wells were washed and adherent cells were quantitated as previously described [Skubitz et al., supra (1987)]. Cell viability after a one hour incubation in the presence of the "inhibitors" was assessed by trypan blue dye exclusion.

[4] = tested on: murine melanoma (C10) cells; assay: as above; format: cell-based; details: soluble peptide 10 μg/ml, surface coated with 1.5 μg of laminin
Text: as §1, §2

[5] = tested on: murine melanoma (M4) cells; assay: as above; format: cell-based; details: soluble peptide 10 μg/ml, surface coated with 1.5 μg of laminin
Text: as §1, §2

[6] = tested on: human fibrosarcoma (HT1080) cells; assay: as above; format: cell-based; details: soluble peptide 20 μg/ml, surface coated with 1.5 μg of laminin
Text: as §1, §2

[7] = tested on: HT-1080 human fibrosarcoma cells; assay: Cell spreading assay; format: cell-based; details: wells coated at 100 μg/ml; 2 1/2 hour incubation; HT-1080; Table VII
Experimental: Spreading of the adherent cells was evaluated by performing adhesion assays similar to those described above. Twenty-four well tissue culture plates (Becton Dickinson and Co., Lincoln Park, N.J.) were coated with 300 μl of laminin, synthetic peptides, or BSA at 100 μg/ml, then blocked with 2 mg/ml BSA in PBS. Three hundred microliters of a cell suspension at 5×10^4 cells/ml was added to each well, and after a 21/2 hour incubation, nonadherent cells were aspirated out of the wells. Adherent cells were fixed with 2% glutaraldehyde in PBS at 23° C. for one hour. The glutaraldehyde was then removed and the cells were stained by two different techniques. For photographic purposes, the cells were stained with Diff-Quik Solution I (American Scientific Products, McGaw Park, Ill.) for 10 minutes at 23° C. Solution I was removed, then Diff-Quik Solution II was added and the cells were stained for another 10 minutes at 23° C. Wells were washed with PBS, then representative cells were photographed with a Nikon DIAPHOT inverted phase microscope using Panatomic X Film ASA32 (Eastman Kodak, Rochester, N.Y.). Adherent cells to be quantitated for spreading were stained overnight at 23° C. with 500 μl of a solution containing 0.12% (w/v) Coomassie Brilliant Blue R (Sigma Chemical Co.), 5% (v/v) acetic acid, and 50% (v/v) ethanol. Wells were washed three times with 500 μl of PBS and cell spreading was then quantitated by measuring the average surface area occupied by a cell using an Opti-Max Image Analyzer. Thirty cells were measured per well; each experiment was done in quadruplicate and repeated three times. In all cases, the cells spread on the peptides to occupy an area about 60% of that seen on laminin-coated surfaces.

[8] = tested on: human colon (KM12 C) cells; assay: Inhibition of cell adhesion to laminin-coated surfaces; format: cell-based; details: soluble peptide 10 μg/ml, surface coated with 1.5 μg of laminin
Text: as §1, §2

[9] = tested on: human renal (SN12 PM6) cells; assay: as above; format: cell-based; details: soluble peptide 10 μg/ml, surface coated with 1.5 μg of laminin
Text: as §1, §2

[10] = tested on: human renal (SN12C) cells; assay: as above; format: cell-based; details: soluble peptide 10 μg/ml, surface coated with 1.5 μg of laminin
Text: as §1, §2

[11] = tested on: human fibrosarcoma HT-1080 cell line; assay: Direct cell adhesion to peptide-coated surfaces; format: cell-based; details: increasing concentrations adsorbed, up to 5 μg/well; 30 minutes (FIG. 4)
Text: as §1
The direct adhesion of cells to protein or peptide coated surfaces was performed as described in Skubitz et al., Exp. Cell Res., 173, 349-360 (1987) and Charonis et al., supra (1988). Briefly, radiolabeled cells were added to 96-well microtiter plates coated with various concentrations of synthetic peptides, laminin, or BSA (0.02 μg/well-50 μg/well from 50 μl solutions) for various lengths of time. After the incubation period, loosely or nonadherent cells were removed by washing the wells three times. Adherent cells were solubilized and quantitated in a scintillation counter. […] The solubilized cells were then quantitated using a liquid scintillation counter.
Instead of attempting to characterize the cell binding activity of all 14 of the synthetic peptides, a number of peptides from each of the three heparin binding categories of peptides were evaluated. […]
Radiolabeled HT-1080 human fibrosarcoma cells were incubated in the wells for 30 minutes and the adhesion of cells was quantitated.

[12] = Two micrograms peptide adsorbed, 0.02M Tris pH 6.8, 2 hr 37 C

Sequence	Heparin Binding (bound ^3 H-heparin as percent of input) [1]	Heparin binding activity group [1]	promotion of cell adhesion, in words [2]	Percentage Inhibition of Laminin-Mediated Cell Adhesion [3] [%]	Percentage Inhibition of Laminin-Mediated Cell Adhesion [4] [%]	Percentage Inhibition of Laminin-Mediated Cell Adhesion [5] [%]	Percentage Inhibition of Laminin-Mediated Cell Adhesion [6] [%]	Surface Area Occuppied by a Cell [7]	Bound ^3 H-heparin as percent of input, 0.05M NaCl [1, 12]	Bound ^3 H-heparin as percent of input, 0.15M NaCl [1, 12]	Percentage Inhibition of Laminin-Mediated Cell Adhesion [8] [%]	Percentage Inhibition of Laminin-Mediated Cell Adhesion [9] [%]	Percentage Inhibition of Laminin-Mediated Cell Adhesion [10] [%]	Bound ^3 H-heparin as percent of input, 0.5M NaCl ([1]; Two micrograms peptide adsorbed, 0.02M Tris pH 6.8, 0.5M NaCl, 2 hr 37 C)	^3 H-heparin binding, in words ([1]; increasing concentrations of peptide adsorbed (FIG. 3))	HT-1080 cell adhesion, in words [11]
DFLAVEMRRGKVAFLWD [Peptide R23, DFLAVEMRRGKVAFLWD]	** (4.0-5.9% (**))	moderate heparin binding	also promoted cell adhesion	40	21	86	–	–	–	–	–	–	–	–	–	–
DGKWHTVKTEYIKRKAF [Peptide R28, DGKWHTVKTEYIKRKAF]	–	poor heparin binding	in some cases, less active or inactive at promoting cell adhesion	–	–	–	4	372 +/- 33 um2	–	–	–	–	–	–	–	–
HSKAVRKGVSSRSYVGC [Peptide R34, HSKAVRKGVSSRSYVGC]	* (2.0-3.9% (*))	poor heparin binding	in some cases, less active or inactive at promoting cell adhesion	0	0	–	0	302 +/- 41 um2	* (2.0-3.9% (*))	* (2.0-3.9% (*))	0	0	0	–	–	–
KNLEISRSTFDLLRNSYGVRK [Peptide R26]	–	poor heparin binding	in some cases, less active or inactive at promoting cell adhesion	–	–	–	32	360 +/- 27 um2	–	–	–	–	–	–	–	–
QIKKSPAVKVTHFKGCMG [Peptide R24, QIKKSPAVKVTHFKGCMG]	–	poor heparin binding	in some cases, less active or inactive at promoting cell adhesion	–	–	–	0	381 +/- 35 um2	–	–	–	–	–	–	–	–
RAARALCDGKWHTLQAHKSKHR [Peptide R29]	** (4.0-5.9% (**))	moderate heparin binding	also promoted cell adhesion	0	79	–	–	–	–	–	–	4	0	–	–	–
TDRRYNNGTWYKIAFQRNRKQ [Peptide R25]	* (2.0-3.9% (*))	poor heparin binding	in some cases, less active or inactive at promoting cell adhesion	–	–	–	–	338 +/- 30 um2	** (4.0-5.9% (**))	** (4.0-5.9% (**))	–	–	–	* (2.0-3.9% (*))	–	–
TSLRKALLHAPTGSYSDGQ [Peptide R35, TSLRKALLHAPTGSYSDGQ]	–	poor heparin binding	in some cases, less active or inactive at promoting cell adhesion	–	–	–	0	59 +/- 4 um2	–	–	–	–	–	–	does not bind	no cell adhesion was observed
